This is an account of results in PubChem BioAssay (NCATS).

Values joined by “and” are separate entries in the source; they are usually repeats but may differ in a detail not shown here. Identical values can stand only once. The list shows a part of the results. Further columns of the screen follow, without active or inactive calls. For some of these results: The list favours compounds with an active or inconclusive main result. For some of these results: The note in brackets gives the kind of curve behind each potency; many fits are weak.

Assay [1] is described as follows: qHTS Assay for Lipid Storage Modulators (AID 1519). To be noted: Drosophila S3 cells, BODIPY lipid droplet/cell ratio, laser cytometry, cells loaded with oleic acid. The method in brief:
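Cells seeded at 5,000 per well were treated with compounds over a concentration series and loaded with oleic acid (400 uM, as added). Lipid droplet fluorescence (488 nm excitation, 500-530 nm channel) was read by laser-scanning cytometry and normalized to 20 uM Triacsin C.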
(In general: qHTS replaces the single test concentration by a dilution series.)

Assay [2] can be described thus: qHTS Assay for Modulators of Human Peripheral Myelin Protein 22 (PMP22) Expression/Activity (AID 1967). Conditions: Cell-based PMP22 reporter, dual-color luciferase ratio; measured here: red reporter channel AC50; EF-alpha promoter control reporter in MSC80 mouse Schwann cells. The method in brief:
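Mouse MSC80 Schwann cells carrying Pmp22 promoter–green click beetle luciferase plus EF-alpha–red luciferase control, dosed 24 h at 37 °C. Dual-filter luminescence, overlap-corrected; %Activity from green/red ratio normalised to untreated cells, concentration-response curves fitted.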

In assay [3] the target is Histamine N-methyltransferase (Homo sapiens) (UniProt P50135). The assay is described as follows: Confirmatory Screen for Target Class Profiling of Small Molecule Inhibitors of Methyltransferases (AID 1745852).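 Note: inhibitor potency for blocking SAH production.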 Conditions: MTase-Glo luminescence, SAH detection, recombinant enzyme; measured here: HNMT inhibition potency.
Chain of UniProt P50135 (P50135 whole entry, looked up): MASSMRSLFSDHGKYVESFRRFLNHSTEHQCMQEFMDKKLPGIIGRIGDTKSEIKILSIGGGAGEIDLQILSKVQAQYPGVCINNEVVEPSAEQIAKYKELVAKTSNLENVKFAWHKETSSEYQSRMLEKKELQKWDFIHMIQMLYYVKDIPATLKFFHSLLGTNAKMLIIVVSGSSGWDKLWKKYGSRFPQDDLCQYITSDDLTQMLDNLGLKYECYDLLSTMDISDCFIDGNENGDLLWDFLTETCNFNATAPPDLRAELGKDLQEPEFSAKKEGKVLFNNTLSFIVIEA
Assay [4] can be described thus: qHTS assay for small molecule antagonists of androgen receptor signaling (AID 588516). Conditions: AR-UAS-bla HEK293, beta-lactamase ratio, antagonist mode, 16 h. The method in brief: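 Antagonist mode: inhibition of R1881-stimulated (10 nM final) bla reporter in GeneBLAzer AR HEK 293 cells, 16 h at 37C, compounds titrated. IC50 and efficacy from Hill-equation fits of 405/460–530 nm FRET ratios.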

Assay [5] in a line: qHTS assay for small molecule antagonists of glucocorticoid receptor signaling (AID 588533).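 Note: cells stimulated with 2 nM dexamethasone as agonist.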 Conditions: HeLa MMTV-bla, GRE beta-lactamase ratio, antagonist mode, 18 h; measured here: W530 channel AC50.
The nature of assay [6]: qHTS assay for small molecule antagonists of peroxisome proliferator-activated receptor delta signaling (AID 588535).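 Note: cells co-treated with a PPAR-delta agonist as stimulator during compound exposure.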 To be noted: HEK293T PPARd-UAS-bla, beta-lactamase FRET ratio, 18 h; 460 nm channel. In a few lines: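 Fluorescence from CCF4-loaded GeneBLAzer PPAR-delta-UAS-bla HEK293T cells (2 hrs RT loading) quantified reporter inhibition after an 18 hr, 37 C compound exposure across a titration.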

The nature of assay [7]: qHTS assay for small molecule antagonists of peroxisome proliferator-activated receptor gamma signaling (AID 588537). Conditions: HEK293 PPARg-UAS-bla, beta-lactamase ratio, antagonist mode; measured here: W460 blue channel. In a few lines: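 Fluorescence at 460 and 530 nm (405 nm excitation) reported beta-lactamase cleavage of CCF4 after 2 h room-temperature loading. HEK293 reporter cells in 1% charcoal/dextran-treated FBS had received compound and rosiglitazone for 16 h.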

A short description of assay [8]: qHTS assay for small molecule agonists of retinoid X receptor alpha signaling (AID 588544). To be noted: HEK293T RXRa-UAS-bla, beta-lactamase reporter, 18 h; 530 nm emission.
Assay [9] in a line: qHTS assay for small molecule antagonists of retinoid X receptor alpha signaling (AID 588546).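 Note: cells stimulated with 9-cis-retinoic acid as agonist; % is set by controls: 0 for no effect and ±100 for the full control effect.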 To be noted: HEK293T RXRa-UAS-bla, beta-lactamase ratio, antagonist mode; measured here: W530 green channel, cytotoxicity proxy. In a few lines:
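Beta-lactamase reporter inhibition, read as CCF4 fluorescence ratio (ex 405, em 460/530 nm) after 2 h at RT. HEK293T UAS-bla cells, 2500/well, were stimulated with 9-cis-RA at 500 or 100 nM final alongside test compound for 18 h at 37 C.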

Assay [10] is described as follows: S16 Schwann cell PMP22 intronic element beta-lactamase assay (AID 624044). Note: nearly all actives have a fitted effect of over 15% in size. Conditions: S16 rat Schwann cells, PMP22 element beta-lactamase FRET, 24 h. In a few lines: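 Beta-lactamase reporter under a PMP22 intronic regulatory element in stable S16 rat Schwann cells; 24 h compound exposure. 460 nm blue signal normalized between DMSO (0%) and potassium clavulanate, with 535 nm FRET tracking viability; curves classed by r2 and response.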

Assay [11] in a line: qHTS drug screen for cell cycle checkpoint inhibitors in PARPi-resistant BRCA-mutant ovarian cancer cell lines. (AID 1963452). To be noted: PEO1/OlaR viability, CellTiter-Glo luminescence, 96 h. The method in brief:
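PEO1, PEO4 and PEO1/OlaR ovarian cancer cells, 600 per well, exposed 96 h at 37C to a dilution series. Viability read by CellTiter-Glo luminescence, normalized to DMSO and empty wells; activity summarized as Z-AUC.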

A short description of assay [12]: qHTS for identification of novel therapeutic agents for treatment of microphthalmiaassociated transcription factor (MiT) renal cell carcinoma (RCC) (AID 1963991). To be noted: TFE3-RCC viability, CellTiter-Glo, 48 h. In a few lines:
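UOK109/UOK124/UOK145 (TFE3 fusions, three partners); 500 cells/well; MIPE v4.0, 1912 cpds, 11 conc.; 48 h, 37 C; CellTiter-Glo, 15 min RT; lum. Norm.: DMSO 100%, empty 0%.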

The nature of assay [13]: qHTS Validation Assay to Find Inhibitors of Chronic Active B-Cell Receptor Signaling (AID 485345). Conditions: ABC-DLBCL cells, chronic BCR signaling reporter. In a few lines:
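TMD8 ABC-DLBCL cells stably carrying doxycycline-inducible IkappaBalpha–green luciferase fusion plus unfused red luciferase; compounds 46 uM to 3 nM, 4 h at 37C with doxycycline. Corrected green/red luminescence ratio normalized to 10 uM MG-132 and basal cell wells; curves fitted.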

A short description of assay [14]: A High-Content qHTS Against Drug Library for the Identification of Small Molecules that Inhibit DYT1 Early Onset Primary Dystonia-Associated Cell Pathology (AID 1645839). To be noted: HEK293 Flp-In EGFP-delE TorsinA, punctate imaging, 48 h; measured here: cell count cytotoxicity. In a few lines:
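Cells were seeded and left for 24 h, then dosed with compound alongside tetracycline induction of mutant EGFP-TorsinA. They were incubated for 48 h, fixed in 4% paraformaldehyde, permeabilized and imaged for mislocalization (%pathology) and cell count.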

The nature of assay [15]: NCATS anti-infectives library activity on the primary C. elegans qHTS viability assay (AID 1745855). To be noted: C. elegans worm area imaging, day 7; measured here: worm number, day 3. In a few lines:
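GFP read-out by 488 nm laser cytometry at day 0, 3 and 7, gated on object perimeter, area and peak intensity, scored viability of PE254-GFP-FLuc worms exposed to compound in S medium with bacterial capsules at 21 °C.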

The mark [16] stands for this setting: measured here: cell count channel max response.
Where [17] appears, read: measured here: cell number channel AC50.
[18] abbreviates: measured here: lipid (BODIPY) channel AC50.
[19] abbreviates: measured here: lipid channel max response.
[20] abbreviates: measured here: 460 nm blue channel.
Tags give direction and shape of the fitted curve.

In the case of `CC1CCN=C(N)S1` (configuration not stated), the max response in [1] (setting [16]) is 11.7%; in assay [1] (setting [19]) it was 11.5%. In addition, the concentration at half-maximal activity (AC50) (commonly the midpoint of the concentration-response curve, whichever way the signal moves) in assay [1] (setting [17]) was 7.94 µM [falling, partial curve, poor fit]; in assay [1] (setting [18]) it was 7.94 µM [falling, partial curve, poor fit]; in assay [2], 19 µM [rising, single point]. Besides, the IC50 (as a rule, the concentration needed to halve the response being measured) in [3] is 17.2 µM [falling, partial curve, poor fit].

On to `CN(C)c1ccc(C(=C2C=CC(=[N+](C)C)C=C2)c2ccc(N(C)C)cc2)cc1`, for which the max response in [1] (setting [16]) was -106%; in [1] (setting [19]), -103%; in [6] it was 1.36% and -0.271%; in assay [8], 27.8% and -34.2%; in [9], -7.84% and -52%. The AC50 in assay [1] (setting [17]) is 1.78 µM [falling, full curve]; in assay [1] (setting [18]) it was 1.58 µM [falling, full curve]; in [4] (measured here: W460 blue channel fit), 14.1 µM [falling, partial curve]; in assay [4] (measured here: W530 green channel, cytotoxicity/artifact), 8.91 µM [rising, full curve] and 10 µM [rising, partial curve]; in assay [5], 28.2 µM [falling, full curve, poor fit] and 44.7 µM [falling, partial curve, poor fit]; in [7], 50.1 µM [falling, single point] and 50.1 µM [falling, partial curve, poor fit]. The AC50 in assay [10] (setting [20]) is 1.58 µM [falling, full curve]; in [10] (measured here: 530 nm viability channel), 1.41 µM [falling, full curve]; in assay [11] (measured here: PEO1 parental viability), 0.245 µM [falling, full curve]; in [11] (measured here: PEO4 viability), 0.195 µM [falling, full curve]; in assay [12] (measured here: UOK124 cell viability) it was 0.59 µM [falling, full curve]; in assay [12] (measured here: UOK145 cell viability), 0.418 µM [falling, full curve].

Consider `COc1cc(C(=O)OCCCN2CCCN(CCCOC(=O)c3cc(OC)c(OC)c(OC)c3)CC2)cc(OC)c1OC`, for which the max response is 34.9% and 13.1% in [1] (setting [16]); 46.3% and 14.6% in assay [1] (setting [19]). In addition, the AC50 in assay [1] (setting [17]) is 10 µM [rising, partial curve, poor fit] and 15.8 µM [falling, single point]; in [1] (setting [18]), 15.8 µM [rising, partial curve, poor fit]; in assay [13] (measured here: CBG/CBR ratio read-out) it was 5.8 µM [falling, full curve]; in assay [13] (measured here: CBR control luciferase (viability counter)) it was 0.0146 µM [rising, full curve]; in [10] (setting [20]) it was 12.6 µM [falling, full curve]; in assay [14], 22.4 µM [falling, single point].

For `CC(=O)CCCCn1c(=O)c2c(ncn2C)n(C)c1=O`, the max response in [1] (setting [16]) stood at 33.3%; in [1] (setting [19]), 37.5%. Moreover, the AC50 in assay [1] (setting [17]) is 10 µM [falling, partial curve, poor fit]; in assay [1] (setting [18]), 10 µM [falling, partial curve, poor fit]; in [2], 84.9 µM [falling, single point]; in [15] it was 5.15 µM [falling, partial curve, poor fit].
